The list shows a part of the results. The energies were worked out here from pooled read counts, against the library average; single values are noisy.
molecular target: T1, Pho4 (S. cerevisiae) (UniProt P07270); experiment: relative binding free energy (BET-seq); higher = weaker binding; conditions: reference: library average
T1 sequence: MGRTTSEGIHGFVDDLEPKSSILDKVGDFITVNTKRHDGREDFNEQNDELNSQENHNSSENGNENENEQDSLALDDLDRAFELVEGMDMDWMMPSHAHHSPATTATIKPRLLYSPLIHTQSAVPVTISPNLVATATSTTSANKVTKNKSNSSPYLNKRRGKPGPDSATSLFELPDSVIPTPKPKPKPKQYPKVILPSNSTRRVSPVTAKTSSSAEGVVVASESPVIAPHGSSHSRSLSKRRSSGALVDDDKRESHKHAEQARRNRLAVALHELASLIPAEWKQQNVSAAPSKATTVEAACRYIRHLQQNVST

Sequence	relative binding free energy [kcal/mol]
GAGTGCACGTGGGGAA	-0.08
AATAGCACGTGGTAGT	-0.17
AGTTGCACGTGAGAGT	0.12
GTGGTCACGTGTGTCA	0.14
TGTAGCACGTGGCGTT	-0.19
GAAGGCACGTGGTACG	-0.13
TTGGCCACGTGGTAGG	-0.03
GCAGTCACGTGAGTGG	0.19
TGTGACACGTGGCGGT	-0.04
GTAATCACGTGTTGGG	0.15
GATTGCACGTGAGGTG	0.27
GCGTGCACGTGGTAGT	0
TGGTTCACGTGGGGTA	0.14
CATGGCACGTGTTGGC	-0.06
CATGTCACGTGACAGG	0.35
TAAGACACGTGGAAGG	0.12
GGAAGCACGTGTGTGT	-0.19
TGGTGCACGTGTTTTA	0.05
CTTTACACGTGTCGTT	0.13
GCTTGCACGTGCGGGG	-0.09
GATTTCACGTGTATAG	0.25
TGTCTCACGTGATAGT	0.34
GTGGTCACGTGCTGCG	-0.1
TGAGGCACGTGTACGG	-0.12
TACGGCACGTGTGCGT	-0.06
TAGGTCACGTGACAGT	0.16

Sequence	relative binding free energy [kcal/mol]
TTCTGCACGTGTTCTG	0.02
TTATCCACGTGTAAGG	0.29
TTTGTCACGTGATAAG	0.29
TCGGGCACGTGTGAGC	-0.1
GTTTTCACGTGCTAGG	0.24
TAACTCACGTGAGGTT	0.22
TTATGCACGTGGTTCA	-0.03
GCTTGCACGTGTTGTT	0.1
TGATTCACGTGGTTAA	0.29
AGGAACACGTGTGGCG	0.15
GCTTACACGTGTTGGT	0.26
CGTGGCACGTGCTTGT	-0.13
ATTTTCACGTGAGTGC	0.36
TCCGTCACGTGTGGTT	0.19
AGAAGCACGTGTGGCT	0.04
TGCGCCACGTGTTGTG	-0.11
TTGAGCACGTGCTTGT	-0.2
CGTGGCACGTGGGTAA	-0.17
TGAACCACGTGTGTGT	-0.18
TTCGGCACGTGATGGA	0.01
CTTGGCACGTGTGAGA	-0.01
TAGTTCACGTGGCAAT	0.32
TTGTCCACGTGAGGTG	0.24
TGATGCACGTGGATAG	-0.17
CATAGCACGTGGGGGC	-0.11
TGTGTCACGTGAGGAG	0.29

Sequence	relative binding free energy [kcal/mol]
GTTTTCACGTGACATT	0.42
GGTAACACGTGGGAGA	-0.01
TTTAGCACGTGGCAGA	-0.12
GGGAGCACGTGCTGTA	-0.19
GTTTTCACGTGAATGA	0.4
AGGGGCACGTGCTGAT	-0.19
AGTTTCACGTGGATAA	0.21
GGAATCACGTGGGGTG	0.02
GAAATCACGTGTCGGT	0.35
CTGTTCACGTGAGGGG	0.41
GTAAACACGTGGTGTG	0.01
TGAGCCACGTGTTGTG	-0.07
TTAATCACGTGCGTTG	0.07
TTGTTCACGTGTAATG	0.36
GCGTGCACGTGTGTGT	0
ATTGTCACGTGTCTGA	-0.07
GTACGCACGTGTTGTG	-0.03
TGTGTCACGTGTAGCA	0.1
GGCTGCACGTGTAATG	0.22
ATTGACACGTGATTGT	0.14
TGTTGCACGTGATGTC	0.21
AAGGGCACGTGATGTG	0.08
ATGTGCACGTGAAGTT	0.16
TAAGACACGTGCGTTT	0.01
TTGCACACGTGGAGTA	0.08
CTGAACACGTGAAGGT	0.37

Sequence	relative binding free energy [kcal/mol]
AGTTTCACGTGACGTA	0.36
TAAGTCACGTGGTACT	0.04
GTAGACACGTGCGGGG	-0.17
TAGTACACGTGTGATT	0.18
GGGCACACGTGTGAGG	0.15
GTTTGCACGTGGGTAG	-0.06
ATGGCCACGTGGGTGG	-0.17
GAAAGCACGTGGACGG	0.08
AACTACACGTGGGTGG	-0.04
TGGGACACGTGTGGAC	0.18
GTGGACACGTGGGTGC	0.03
TTACTCACGTGTGTGC	0.23
CGTGTCACGTGTTGTC	0.07
AGGTACACGTGATGTA	0.12
AGGTTCACGTGCTTTG	0.33
GGTCACACGTGGTGGG	0.09
GTGTGCACGTGTCGGT	0.06
TATGGCACGTGGATGG	-0.18
TTGCGCACGTGAATTG	0.11
GTATTCACGTGCGGTG	0.22
CGAGGCACGTGAGGTG	0.06
ATTTGCACGTGTTTGG	0.09
TCGCTCACGTGTGGGA	0.3
TTTGACACGTGGTGCT	-0.05
GATGACACGTGAAGTT	0.37
GGAGACACGTGGGTTG	-0.15

Sequence	relative binding free energy [kcal/mol]
GTGTCCACGTGAATGT	0.22
ATTGTCACGTGAGTTA	0.25
TGTGTCACGTGGCGTC	-0.1
TTAAGCACGTGTAGGG	-0.09
TTATTCACGTGGTAAA	0.13
TTTGGCACGTGATGGA	-0.02
ATTACCACGTGGGGGG	-0.26
ATGGTCACGTGGTAAT	0.17
AGGTACACGTGGATTA	0.11
GGCTGCACGTGGTTTG	0.08
TGGCTCACGTGGGCAT	0.1
TTCCGCACGTGGAGGG	-0.1
TCGGTCACGTGGGGAT	0.07
GTAATCACGTGAGTCA	0.5
TCTTACACGTGTGGAT	0.11
GTGAACACGTGCTGTT	-0.02
TTTGTCACGTGGTAAA	0.2
AAGTGCACGTGGGGAG	-0.26
GAGGACACGTGTTGCA	0.24
GATTTCACGTGGAGTG	0.28
TGTGTCACGTGGTTCT	-0.14
TGCCGCACGTGTGGCG	0.04
CAGTTCACGTGGGGGG	0.16
GGAGGCACGTGCTAGT	-0.22
TTGGTCACGTGTCCGT	0.06
GTGAGCACGTGTGTTT	-0.05

Sequence	relative binding free energy [kcal/mol]
GGTTGCACGTGAGTGC	0.34
CTAGGCACGTGTACGG	0.01
AATTGCACGTGTAGCG	0.14
GGGAACACGTGAGTGT	0.23
GGTGCCACGTGGTGAT	-0.06
GTAGGCACGTGCGGCC	0.13
ATGATCACGTGATAGG	0.21
TGAGCCACGTGGGGGT	-0.24
GTATCCACGTGGTGCG	0.01
TATTTCACGTGTTGCC	0.34
GTGGTCACGTGCTTAT	0.13
AATGTCACGTGTCTAT	0.2
AGGCACACGTGGTTGT	0
TGGTTCACGTGAAGAA	0.22
CTATACACGTGGTATT	0.02
AAGGACACGTGAGGGT	0.25
TCATGCACGTGTCTTG	0.02
TGACACACGTGGAAGG	0.09
AGGTACACGTGGTGGT	-0.01
TCGTGCACGTGTAGGG	-0.1
AGAGGCACGTGGGTAC	-0.3
GTTTACACGTGTGACT	0.16
TGGAGCACGTGGAAGC	0.03
TGTGACACGTGGGAGG	-0.08
CGGAACACGTGGAGGG	-0.18
AGGGACACGTGTCGTG	-0.1

Sequence	relative binding free energy [kcal/mol]
TGGCTCACGTGGACGT	0.35
GTTTGCACGTGCACGT	0.02
CTTGTCACGTGTGTTC	0.14
CGAGTCACGTGGAAGT	0.14
TTGTACACGTGGATAA	0.09
AGTAGCACGTGTTGTA	-0.08
TTATTCACGTGGCGCT	0.08
GGGGTCACGTGTAACA	0.17
GCTGTCACGTGGGATG	0.06
TTGTGCACGTGTAAAG	0.03
GGGGTCACGTGCGTAG	0.03
TATAACACGTGTGGCG	0.05
GTCAGCACGTGGGTAT	-0.18
TATGTCACGTGATCGT	0.12
GGAGTCACGTGATAGA	0.19
TAATTCACGTGCATAT	0.24
ATACTCACGTGGTGGA	0.15
GGGCGCACGTGGTGTT	-0.13
GTTGTCACGTGTGTGT	0.12
TATTTCACGTGTAAGT	0.34
TTGTTCACGTGAGACA	0.44
TGAAACACGTGGGTAG	-0.09
GATTACACGTGGCTTT	0.13
ATCGGCACGTGTTGGT	-0.09
CTGGTCACGTGGGGTC	0.02
CACGGCACGTGGGGGG	-0.37

Sequence	relative binding free energy [kcal/mol]
GGTTTCACGTGTATTT	0.26
TCTGGCACGTGGTGGG	-0.08
GGGGCCACGTGATGTT	0.09
TGTAGCACGTGCTGGA	-0.1
GGCTTCACGTGGGAGG	0.23
ATTTACACGTGAGCGT	0.18
GATTACACGTGATAGG	0.25
AGGGGCACGTGTAGAA	-0.07
GTTGACACGTGTTTGC	0.14
ATAACCACGTGGGTTT	-0.17
GAGATCACGTGATGGG	0.25
GCTGTCACGTGTGGAG	0.16
CAGGTCACGTGGGCGT	-0.21
ATCTTCACGTGAGTGG	0.43
AAAGACACGTGGAGTT	0.19
TTGGCCACGTGGGCTG	-0.32
AGAGGCACGTGGGTGG	-0.29
GATGGCACGTGGGGCA	-0.22
AGGTTCACGTGCTTTT	0.22
CTCTTCACGTGTTTGG	0.04
GGTGGCACGTGATATG	-0.02
GTTGTCACGTGGTACT	0.03
ATGGGCACGTGGAGCA	-0.09
CTGTGCACGTGTGATA	0.05
TAGTACACGTGAGGAG	0.38
GTTGACACGTGATTAA	0.13

Sequence	relative binding free energy [kcal/mol]
CTTGACACGTGTTGGG	0
AAAGACACGTGGGGGA	-0.07
CTAGACACGTGGTAGG	-0.12
ATTGACACGTGTGATG	-0.07
TGTGTCACGTGAATCG	0.41
TTTTTCACGTGAGAGC	0.39
GGTTTCACGTGTTTGT	0.22
TGTGTCACGTGTACTA	0.03
ATGGTCACGTGCAGAG	0.02
TCTGTCACGTGGTTCG	0.11
GGGTTCACGTGCCGGG	0.27
CTAGTCACGTGTATTG	0.11
TTACGCACGTGGTGGA	-0.19
TGGATCACGTGGACGT	0.12
GGCTGCACGTGAGGTA	0.19
ATATACACGTGTCGGA	0.14
TGAGTCACGTGAGTGG	0.31
AGATGCACGTGGTGAT	-0.12
TTGGGCACGTGCGGAA	-0.27
TGGTACACGTGGGTCT	-0.17
TTTGTCACGTGACTTA	0.22
GAGGTCACGTGCTGTG	0.13

Source: the BET-seq Pho4 binding data (Le et al. 2018)
